T1: RBFOX1 RRM (Homo sapiens, UniProt Q9NWB1 109-208)
T1 sequence: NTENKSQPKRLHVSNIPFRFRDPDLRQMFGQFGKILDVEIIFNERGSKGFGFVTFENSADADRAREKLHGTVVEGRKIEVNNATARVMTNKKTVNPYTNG

B1: CGUCGCG (DNA:RNA)
RNA: GGGAGACCGGAAUUCAGAUUGUCCCGUCGCGUUAAAUCCCGUCGUAGCCACCA
DNA 1: CAATCTGAATTCCGGTCTCCC
DNA 2: TGGTGGCTACGACGGGATT
B2: UCUAACG (DNA:RNA)
RNA: B1 RNA with C25U, G26C, C28A, G29A
DNA 1: CAATCTGAATTCCGGTCTCCC
DNA 2: TGGTGGCTACGACGGGATT
B3: CUAAGGU (DNA:RNA)
RNA: B1 RNA with G26U, U27A, C28A, C30G, G31U
DNA 1: CAATCTGAATTCCGGTCTCCC
DNA 2: TGGTGGCTACGACGGGATT
B4: AGUACAU (DNA:RNA)
RNA: B1 RNA with C25A, C28A, G29C, C30A, G31U
DNA 1: CAATCTGAATTCCGGTCTCCC
DNA 2: TGGTGGCTACGACGGGATT
B5: AGUUAUA (DNA:RNA)
RNA: B1 RNA with C25A, C28U, G29A, C30U, G31A
DNA 1: CAATCTGAATTCCGGTCTCCC
DNA 2: TGGTGGCTACGACGGGATT
B6: UGACAAA (DNA:RNA)
RNA: B1 RNA with C25U, U27A, G29A, C30A, G31A
DNA 1: CAATCTGAATTCCGGTCTCCC
DNA 2: TGGTGGCTACGACGGGATT
B7: CCGUCUU (DNA:RNA)
RNA: B1 RNA with G26C, U27G, C28U, G29C, C30U, G31U
DNA 1: CAATCTGAATTCCGGTCTCCC
DNA 2: TGGTGGCTACGACGGGATT
B8: UGCCAAU (DNA:RNA)
RNA: B1 RNA with C25U, U27C, G29A, C30A, G31U
DNA 1: CAATCTGAATTCCGGTCTCCC
DNA 2: TGGTGGCTACGACGGGATT
B9: UUGCAUA (DNA:RNA)
RNA: B1 RNA with C25U, G26U, U27G, G29A, C30U, G31A
DNA 1: CAATCTGAATTCCGGTCTCCC
DNA 2: TGGTGGCTACGACGGGATT
B10: AAUUGGC (DNA:RNA)
RNA: B1 RNA with C25A, G26A, C28U, C30G, G31C
DNA 1: CAATCTGAATTCCGGTCTCCC
DNA 2: TGGTGGCTACGACGGGATT
B11: GGUAAAA (DNA:RNA)
RNA: B1 RNA with C25G, C28A, G29A, C30A, G31A
DNA 1: CAATCTGAATTCCGGTCTCCC
DNA 2: TGGTGGCTACGACGGGATT
B12: UCAGGAU (DNA:RNA)
RNA: B1 RNA with C25U, G26C, U27A, C28G, C30A, G31U
DNA 1: CAATCTGAATTCCGGTCTCCC
DNA 2: TGGTGGCTACGACGGGATT
B13: GAAAUGG (DNA:RNA)
RNA: B1 RNA with C25G, G26A, U27A, C28A, G29U, C30G
DNA 1: CAATCTGAATTCCGGTCTCCC
DNA 2: TGGTGGCTACGACGGGATT
B14: GUGCUUC (DNA:RNA)
RNA: B1 RNA with C25G, G26U, U27G, G29U, C30U, G31C
DNA 1: CAATCTGAATTCCGGTCTCCC
DNA 2: TGGTGGCTACGACGGGATT
B15: GACUCUU (DNA:RNA)
RNA: GGGAGACCGGAAUUCAGAUUGUCCGACUCUUUUAAAUCCCGUCGUAGCCACCA
DNA 1: CAATCTGAATTCCGGTCTCCC
DNA 2: TGGTGGCTACGACGGGATT
B16: UUUAACC (DNA:RNA)
RNA: B1 RNA with C25U, G26U, C28A, G29A, G31C
DNA 1: CAATCTGAATTCCGGTCTCCC
DNA 2: TGGTGGCTACGACGGGATT
B17: CGGACUG (DNA:RNA)
RNA: B1 RNA with U27G, C28A, G29C, C30U
DNA 1: CAATCTGAATTCCGGTCTCCC
DNA 2: TGGTGGCTACGACGGGATT
B18: CCGAUAG (DNA:RNA)
RNA: B1 RNA with G26C, U27G, C28A, G29U, C30A
DNA 1: CAATCTGAATTCCGGTCTCCC
DNA 2: TGGTGGCTACGACGGGATT
B19: AUUCGCC (DNA:RNA)
RNA: B1 RNA with C25A, G26U, G31C
DNA 1: CAATCTGAATTCCGGTCTCCC
DNA 2: TGGTGGCTACGACGGGATT
B20: CGUUUUA (DNA:RNA)
RNA: B1 RNA with C28U, G29U, C30U, G31A
DNA 1: CAATCTGAATTCCGGTCTCCC
DNA 2: TGGTGGCTACGACGGGATT

Where a chain is given by its changes, count along the chain named. This is one part of the list.

This note sets out measurements from PMC9911399, “Two distinct binding modes provide the RNA-binding protein RbFox with extraordinary sequence specificity”.

The target in this assay is T1, RBFOX1 RRM. As to the kind of experiment: EMSA; HiTS-Eq, 1 nM pool, 10 min; buffer printed only for the single-RNA assays: 10 mM Tris pH 7.5, 150 mM NaCl, 3.4 mM EDTA, 0.001% NP-40, 30 C. The following applies: tags: His6 N-terminal (pET28a); label: 5' 32P. In short, it runs like this: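 These values rest on relative association constants, computed from read-count changes of each RNA species versus the control reaction and normalised to the cognate motif. Reads came from free RNA recovered by 8% native PAGE after purified RbFox RRM (wild type or mutant) at increasing concentrations was equilibrated for 10 min in 50 µL with 1 nM of a 5′-radiolabelled pool with 7 randomized nucleotides and DNA-annealed flanks.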
Background: In EMSA bound probe runs differently from free probe, usually more slowly.
For B1, the binding signal was 0.0116 KA relative to UGCAUGU. Under B2 stands 0.00601 KA relative to UGCAUGU.

Regarding B3, the binding signal was 0.0103 KA relative to UGCAUGU. For B4 the value was 0.00291 KA relative to UGCAUGU; for B5, 0.00152 KA relative to UGCAUGU.

Turning to B6, the binding signal is 0.00629 KA relative to UGCAUGU. For B7 the value was 0.0138 KA relative to UGCAUGU; for B8, 0.0121 KA relative to UGCAUGU; for B9, 0.0139 KA relative to UGCAUGU.

With B10, the binding signal was 0.00892 KA relative to UGCAUGU. For B11 the value was 0.0023 KA relative to UGCAUGU; for B12, 0.00397 KA relative to UGCAUGU.

Regarding B13, the binding signal was 0.0147 KA relative to UGCAUGU. Under B14 stands 0.0258 KA relative to UGCAUGU; under B15, 0.0109 KA relative to UGCAUGU; under B16, 0.0023 KA relative to UGCAUGU. Under B17 stands 0.0352 KA relative to UGCAUGU; under B18, 0.0142 KA relative to UGCAUGU; under B19, 0.0134 KA relative to UGCAUGU. Turning to B20, the binding signal is 0.00799 KA relative to UGCAUGU.
